The supplement of paper PMC4466236
The full ranking holds about 33,000 sequences; the median of “E-score (dimensionless, -0.5 to 0.5)” is about -0.058, and the highest 2% start at about 0.35. The list shows a part of the results.

tested on: MvaT; assay: PBM 8-mer E-score (mean of HK and ME arrays) (E-score (dimensionless, -0.5 to 0.5)); higher = stronger relative binding preference; most listed sequences are background and not binding sites
Method: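 Protein binding microarray: GST-tagged full-length MvaT (P. aeruginosa PAO1) bound to two universal double-stranded 60-mer arrays (ME and HK), each with a constant 25-mer primer and a variable 35-mer region covering all 8-mers. The 8-mer E-score (rank-based, range -0.5 to 0.5, >0.45 = specific binding) is the mean of the two arrays.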

Sequence | PBM 8-mer E-score
GCGATCCA | -0.191
TACCTTCA | -0.219
CCAGCCAG | -0.264
AGATATTA | 0.412
ACAGATTC | -0.0147
GCACCGCA | -0.128
AAAGAGTC | 0.0357
AAGTGTCT | 0.172
ATTTACAG | 0.275
GCCGCCCC | -0.343
ATCGGCAA | -0.133
ACTGCAGC | -0.0667
ACCGCCAC | -0.0465
AAGGAATT | 0.096
TGTCGACA | -0.108
AGGTGAAG | -0.152
GTACATAA | 0.297
ACAGCGTG | -0.158
ACTTGGTG | -0.00701
CCGGTGTC | -0.0168
AGAGAACT | -0.046
CAAGTCGA | -0.225
AGCCCGAA | -0.22
CGCACGAA | 0.0361
GACTTCAA | 0.0947

Sequence | PBM 8-mer E-score
ACTCGGAT | 0.00133
GGTTTATA | 0.242
GATCGTCA | -0.124
AAGAGCAG | -0.0732
ACCACTGC | -0.0902
AGGACGCA | -0.148
CCCCGCGG | -0.282
GGTCGCTA | -0.19
AAGCTATG | -0.163
TCGCTCCA | -0.196
GCACAACA | 0.139
CAACCAGG | -0.17
AAGTTATG | 0.349
ATCTACGA | -0.0713
ACTGGGAA | -0.0942
GAAGTATC | 0.0721
ACGTGAGT | -0.244
ACCTATAT | 0.301
TACGACCA | -0.171
AGAGCACA | -0.00958
CCGGTAGA | -0.0881
AATCGCTC | -0.0326
GCACGAGA | -0.211
GCCGGTTA | -0.0226
AGCTCCAG | -0.147

Sequence | PBM 8-mer E-score
CCGCGATA | 0.146
CATTTTAA | 0.176
CCATCGGC | -0.331
CTCTTCAC | -0.188
AATAATCA | 0.259
GCTTTTGA | 0.0712
CATCATGG | -0.198
CAATTAGA | 0.202
CACGTGAC | -0.13
GTTACGTA | 0.0162
CATAGAAA | 0.0586
ATGCAGGA | 0.0212
GCTAGACC | -0.255
CAGCGACG | -0.218
AGCGATCC | -0.318
GCTCTGGA | -0.255
AGCTCCCT | -0.258
AACGATGT | 0.0302
CAGGCATG | -0.203
CCACACAG | -0.0107
ATACATAA | 0.336
GCCATATA | 0.252
CGCAAGAC | -0.0404
GCGGGATA | 0.052
AGGAGACG | -0.326

Sequence | PBM 8-mer E-score
ACGGAGGG | -0.318
CCTGTACA | -0.0494
AGTTACCA | 0.0856
AGCATGGC | -0.286
CATGTGCA | -0.0963
CCAATTCA | -0.0716
CTTAAGTA | 0.263
GGTAAATA | 0.254
CGTGTTTC | -0.141
TCGCCGAA | -0.0535
TCCTCCGA | -0.337
ATATCAGA | 0.253
GTAGATAA | 0.201
ATTCTCTA | 0.149
CCAGATGC | -0.318
GACGCCCC | -0.319
TAAGTCCA | 0.102
ACACAAGT | 0.178
CCAAAGAC | -0.0607
AAGCGTAG | -0.0582
AATGAGAT | 0.0638
ATAACCAG | 0.157
ATCGCCAG | -0.0593
TACTGTGA | 0.147
CTCGGGAC | -0.238

Sequence | PBM 8-mer E-score
ACTGGGCG | -0.162
ACGGTGCA | -0.128
CAAGTGCC | -0.186
ACGTTGTA | 0.0394
GGGACACC | -0.281
AGCAATCC | -0.0831
ACCGATAG | -0.0239
CCGGACCG | -0.222
TACAAAGA | 0.216
GCTTGAAC | -0.0741
CATCAGAG | -0.181
CCGGCGGA | -0.22
CCAGGAAC | -0.144
ATGCGGGG | -0.305
CTCATTTA | 0.172
CAATATTC | 0.226
AACGGATT | 0.0835
AGGTCCAA | -0.286
CAGGATAA | 0.211
CCTCGGAG | -0.225
AGCCAGAA | -0.157
TCAAGGCA | -0.0735
GCAATGGC | -0.264
AGACAGTC | -0.169
AACTGAAG | -0.0971

Sequence | PBM 8-mer E-score
TAGTCGCA | 0.0954
ACTGTCCC | -0.0488
AAGAGGGC | -0.182
CGAATGCG | -0.119
TAATAAAA | 0.389
GCCAAAAC | -0.0792
CACACCCG | -0.157
CTCAGCCA | -0.283
AACGCTAT | 0.0338
ACGATCCT | -0.173
CAGGGCCA | -0.181
CTGATTTC | -0.166
CCTGGAAC | -0.159
GGGTGCAC | -0.196
CCAGATCA | -0.131
GTCTCTCA | -0.195
ATAATACC | 0.333
CGTCCGCC | -0.255
GATGCGGA | -0.0685
CCTGGCCA | -0.208
ATCGTCGA | -0.0341
GCTAGAAC | -0.0509
AGGTCAAC | -0.0391
GGTAATGA | -0.0124
GGGCTGCA | -0.11

Sequence | PBM 8-mer E-score
GGCTGTAC | -0.12
ATCGACCC | -0.173
AAGGATGG | -0.00153
AAATGTTA | 0.319
CAAATTAG | 0.18
GAGATCGC | -0.123
CATCCTGA | -0.222
CCATGGTA | -0.103
ACGGTGAG | -0.204
TACCGCAA | 0.113
CCTCTGAG | -0.251
CCCCCAAA | -0.305
AGAAACGA | -0.0393
ATGCCCCG | -0.125
ACATCCCC | -0.295
ACACGTTG | -0.255
AAGCGGAG | -0.193
CCCATCTC | -0.155
CTCCGTAA | -0.0332
CGCGACAG | -0.0696
CGCACAGA | -0.099
CTCGAGAG | -0.187
